Measured values: patent publication US20210300981A1, “COMPOSITIONS AND METHODS FOR COMBATING MULTIDRUG-RESISTANT BACTERIA” (University of Virginia Patent Foundation, priority 2018, published 2021)

Test system: CRE K. pneumoniae
Assay type: cell-based, Klebsiella pneumoniae
Conditions: 50 μM, RPMI/HEPES, 2.5×10^5 cfu/ml

## L8-GGG-L8-GGG-L8: three copies of Peptide L8 head-to-tail with a tri-glycine linker between each (RTVRCTCIGGGRTVRCTCIGGGRTVRCTCI; Artificially synthesized antibacterial peptide or conjugate)
  bactericidal activity versus negative control Peptide P5: killed CRE K. pneumoniae statistically significantly more effectively than Peptide P5
